B1: CPEB3 Ribozyme (parent)
chain: UAACAGGGGGCCACAGCAGAAGCGUUCACGUCGCAGCCCCUGUCAGAUUCUGGUGAAUCUGCGAAUUCUGCUGUAUAUCUC

The source gives no read counts; variants with many changes may rest on few reads.

The variants in the data set derive from B1. As to the kind of experiment: self-cleavage, relative activity (ratio to wild type); higher = more cleavage; in vitro, sequencing. In outline:
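CPEB3 self-cleaving ribozyme mutant libraries were made by rounds of error-prone PCR, barcoded, and transcribed in vitro with T7 RNA polymerase for 5 hours at 37°C. Cleavage occurred during transcription and a 15 min DNase I step before EDTA stop. RNAs were reverse transcribed with template switching and Illumina-sequenced, with DNA sequencing mapping barcodes to variants. Relative activity is the variant's cleaved/total read fraction divided by wild type's (minimum 5 reads), averaged across three batches.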
For the variant UAACAGGGGGCCACAGCGGAAUCGUUCACGUCGCAGCCCCUGUCUGACUCUGGUGAAUCUGCGAAUCCUGCUGUAUAUCUC [A18G G22U A45U U48C U67C], the self-cleavage amounted to 0.16.
The same measure for UAACAGGGGGCCACAGCGGAAGCGUUCACGUCGCAGCCCCUGUCAGAUUCUCGUGUAUCUGCGAGUUCUGCUGUAUAUCUC [A18G G52C A56U A65G]: 0.24; for UAACAGGGGGCCACAGCGGAAGCGUUCACUUCGCAGCCCCUGUCAGAUUCUGGUGAAUCUGCGAAUUCAGCUGUAUAUCUC [A18G G30U U69A]: 0.14.
The same measure for UAACAGGGGGCCACAGCGGAAGCAUACACGUCGCAGCCCCUGUCAGAUUCUGGUGAGUCUGCGAAUUCUGCUGUAUAUCUC [A18G G24A U26A A57G]: 0.23; for UAACAGGGGGCCACAGCGGAAGCUUUCACGUCGCAGCCCCUGUCAGAUUCUGGUGAAUCUGCGAAUUCUGCAGUAUAUCCC [A18G G24U U72A U80C]: 0.26.
The same measure for UAACAGGGGGCCACAGCGGAAGCGUUCACGUCGCAACCCCUGUCAGAUUCUGGUGAAUCUGCGAACCCUGCUGUAUAUCUC [A18G G36A U66C U67C]: 0.17; for UAACAGGGGGCCACAGCGGAAGCGUUCACGUCACAGCCCCUGGCAGAUUCUGGCGAAUCUGCGAAUUCUGCUGUAUAUCUC [A18G G33A U43G U54C]: 0.15.
As to UAACAGGGGGCCACAGCGGAAGCGUUCACGUCGCAGCCUCUGUCAGAUACUGGUGAUUCUGCGAAUUCUGCUGUAUAUCCC [A18G C39U U49A A57U U80C], the self-cleavage worked out at 0.1.
The same measure for UAACAGGGGGCCACAGCGGAAGCGUUCACGUCGCAGCCCUUGUCUGAUUCUGGUGAAUCUGCGAAUUCUGCUGUAUAUCUC [A18G C40U A45U]: 0.14; for UAACAGGGGGCCACAGCGGAAGCGUUCACGUCGCAGCCCCUGUUAGGUUCUGGUGAAUCUGCGAAUACUGCCGUAUAUCUC [A18G C44U A47G U67A U72C]: 0.13; for UAACAGGGGGCCACAGCGGAAGCGUUCACGUCGCAGCCCCUGUCAGAUUCUGAUGAAUCUGCGAAUUCUGCUUUAUAUCUC [A18G G53A G73U]: 1.22.
For the variant UAACAGGGGGCCACAGCGGAAGCGUUCACAUCGCAGCCCCUGUCAGAUUCAGGUGAACCUGCGGAUUCAGCUGUAUAUCUC [A18G G30A U51A U58C A64G U69A], the self-cleavage came out at 0.02.
With UAACAGGGGGCCACAGCGGAAGCGUUCACGUCACAGCCCCUGUCAGUUUCAGGUGGAUCAGCGAAUUCUGCCGUAUAUCUC [A18G G33A A47U U51A A56G U60A U72C], the self-cleavage was determined as 0.18.
With UAACAGGGGGCCACAGCGGAAACGCUCACGUCGCAGCCCCUGUCAGAUUCUGGUGAAUCCGCGAAUUCUGCUGUAUAUCUC [A18G G22A U25C U60C], the self-cleavage was 0.06.
The same measure for UAACAGGGGGCCACAGCGGAAGCGUUCACGUCGCAGCCCCUGUCAGAUUCUGGUGAAUCUGCGAAUUUUGCUGAAUAUCUC [A18G C68U U74A]: 0.14; for UAACAGGGGGCCACAGCGGAAGCGUUCACGUCGCAGCUCCAGUCAGAUUCUGGUGAAUCUGCGAAUUCUGCUGUAUAUCUC [A18G C38U U41A]: 0.11; for UAACAGGGGGCCACAGCGGAAGCGUUCACGUCGCAGCCCCUCUCAGAUCCUGGUGAGUCUGCGAGUUCUGCUGUAUAUCUC [A18G G42C U49C A57G A65G]: 0.1.
Turning to UAACAGGGGGCCACAGCGGAAGCGUUCACGUCGCAGCCCCUGUCAGAUUCUCGUGAAACUGCGGAUUCUGCUGUAUAUCCC [A18G G52C U58A A64G U80C], the self-cleavage amounted to 0.35.
The same measure for UAACAGGGGGCCACAGCGGAAGCAUUCACGUCGCAGCCCCUGUCAAAUUCUGGUGUAUCUGCGGAUCCUGCUGUAUAUCUC [A18G G24A G46A A56U A64G U67C]: 0.15.
The same measure for UAACAGGGGGCCACAGCGGAAGCGUUCACAUCGCAGCCCCAGUCAGAUCCUGGUGAAUCUGCGAAUUCUGCUGUAUAUCUC [A18G G30A U41A U49C]: 0.34; for UAACAGGGGGCCACAGCGGAAACGCUCACGUCGCAGCCCCUGUCAGAUUCAGGUGAAUCUGCGAAUUCUGCUGUAUAUCUC [A18G G22A U25C U51A]: 0.11; for UAACAGGGGGCCACAGCGGAAGCGUUCACGUCGCAGCCCUUGUCAGAAUCUGGUGAAUCUGCGAAUUCUGCUGUAUACCUC [A18G C40U U48A U78C]: 0.07.
With UAACAGGGGGCCACAGCGGAAGCGUUCACGUCGCAGCCCCUGUUAGAUUCUGGUGGAUCUGCGAAUUCUGCUGUAUAUCUC [A18G C44U A56G], the self-cleavage stood at 0.15.
The same measure for UAACAGGGGGCCACAGCGGAAACGUCCACGUCGCAGCCCCUGUCAGAUUCUGGUGAAUCAGCGAGCUCCGCUGUAUAUCUC [A18G G22A U26C U60A A65G U66C U69C]: 0.09; for UAACAGGGGGCCACAGCGGAAGCAUUCACGUCGCAGCCCCUGACAGAUUCAGGUGAAUCUGCGAAUGCUGCUGUAUAUCUC [A18G G24A U43A U51A U67G]: 0.34.
As for UAACAGGGGGCCACAGCGGAAGCGUUCACGUCUCAGCCCCUGUCAGAUUCUGGUGAAUCUGCGAACUCUGCUGUAUAUCAC [A18G G33U U66C U80A], the self-cleavage worked out at 0.07.
The same measure for UAACAGGGGGCCACAGCGCGAGCGUUCACGUCGCAGCCCCAGUCAGAUUCCGGUGAAUCUGCGAAUUCUGCGGUAUAUGUC [A18G G19C A20G U41A U51C U72G C79G]: 0.07; for UAACAGGGGGCCACAGCGGAAGCAUUCACGUCGCAGCCCCUGUCAGAUUCUGGUGGAUCUGCGAACUCUGCUGUAUAUCUC [A18G G24A A56G U66C]: 0.36; for UAACAGGGGGCCACAGCGGAAACGCUCACGUCGCAGCUCCUGUCAGAUUCUGGUGAAUCUGCGAAUUCUGCUGUAUAUCUC [A18G G22A U25C C38U]: 0.05.
The same measure for UAACAGGGGGCCACAGCGGAAGCGUUCACAUCGCAGCCCUUGCCAGGUUCUGGUGGAUCUGCGAAUUCCGCUGUAUAUCUC [A18G G30A C40U U43C A47G A56G U69C]: 0.14; for UAACAGGGGGCCACAGCGGAAGCGUUCACGUCGCAGCCCCUGUUAGAUUCUGGUGGGUCUGCGAAUUCUGAUGUAUAUCUC [A18G C44U A56G A57G C71A]: 0.22.
The same measure for UAACAGGGGGCCACAGCGGAAGCGUUCACGUCGCAGCCCCUAUCGGACUCUGGUGAAUCUGCGAAUUCUGCUGUAUAUCUC [A18G G42A A45G U48C]: 0.22.
Regarding UAACAGGGGGCCACAGCGGAAGCAUUCACGUCGCAGCCCCUGUCAGAUUCUGGUGAAUCUGCGGAUUCUGCUGUAUAUCUC [A18G G24A A64G], the self-cleavage worked out at 0.15.
Take UAACAGGGGGCCACAGCGGAAGCGUUCACGUCGCAGCCCGUGUCAGAUUCUGGUGGAUCUGCGAAUUCUGCUGUAUAUCUC [A18G C40G A56G]: the self-cleavage turned out to be 0.09.
